Data as given in PMC4336329 (PLoS ONE, 2015).
Hit rate of the full screen: of about 310,000 compounds, about 14,000 (4.5%) showed an effect of 50% or more. The effect is printed as a negative number. The list shows a part of the results.
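Also: peak tail current of the secondary pulse compared with the same well before compound.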

These compounds were tested against human ether-à-go-go-related gene (hERG) potassium channel (human, UniProt Q12809) (assay: primary screen, population patch clamp on CHO cells stably expressing hERG).
Chain of human ether-à-go-go-related gene (hERG) potassium channel (Q12809 whole entry, looked up): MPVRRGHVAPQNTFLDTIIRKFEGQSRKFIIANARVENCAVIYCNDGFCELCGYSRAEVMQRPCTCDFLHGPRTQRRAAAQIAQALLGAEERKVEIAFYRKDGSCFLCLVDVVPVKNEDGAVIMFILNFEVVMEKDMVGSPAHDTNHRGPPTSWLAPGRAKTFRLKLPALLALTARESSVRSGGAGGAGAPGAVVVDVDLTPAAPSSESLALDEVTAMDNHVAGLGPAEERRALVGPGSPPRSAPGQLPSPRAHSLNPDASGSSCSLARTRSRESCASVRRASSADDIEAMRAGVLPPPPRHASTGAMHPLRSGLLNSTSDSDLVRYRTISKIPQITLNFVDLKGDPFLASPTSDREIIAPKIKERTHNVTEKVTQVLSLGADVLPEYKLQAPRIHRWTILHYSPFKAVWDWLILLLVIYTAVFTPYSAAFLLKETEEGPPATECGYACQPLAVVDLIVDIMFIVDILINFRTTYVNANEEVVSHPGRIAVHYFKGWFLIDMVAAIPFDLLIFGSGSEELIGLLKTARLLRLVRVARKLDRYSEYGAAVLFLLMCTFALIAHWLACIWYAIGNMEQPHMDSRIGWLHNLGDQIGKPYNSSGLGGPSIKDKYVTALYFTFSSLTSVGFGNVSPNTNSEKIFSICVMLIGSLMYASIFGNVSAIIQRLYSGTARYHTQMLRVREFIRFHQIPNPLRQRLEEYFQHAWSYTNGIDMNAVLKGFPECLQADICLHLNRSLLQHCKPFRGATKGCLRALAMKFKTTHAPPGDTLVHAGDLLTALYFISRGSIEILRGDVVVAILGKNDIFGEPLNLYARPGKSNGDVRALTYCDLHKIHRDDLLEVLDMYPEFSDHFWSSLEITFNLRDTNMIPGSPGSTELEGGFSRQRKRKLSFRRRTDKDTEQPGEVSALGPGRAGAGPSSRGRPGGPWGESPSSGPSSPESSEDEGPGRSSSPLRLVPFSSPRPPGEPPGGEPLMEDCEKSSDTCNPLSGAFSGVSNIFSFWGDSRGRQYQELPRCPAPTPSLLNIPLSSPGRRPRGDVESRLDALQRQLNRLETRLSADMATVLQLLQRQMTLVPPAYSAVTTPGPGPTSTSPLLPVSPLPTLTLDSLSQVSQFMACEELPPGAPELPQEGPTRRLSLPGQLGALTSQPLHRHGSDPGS
With Cc1cccc(-c2c(NC(=O)c3ccco3)oc3c(C)cccc3c2=O)c1 the “hERG current change (%, negative = inhibition) at 10uM” value was 18.7%. For CN(C)C=Nc1nonc1-c1ncn[nH]1, the “hERG current change (%, negative = inhibition) at 10uM” value was 6.57%. For Cc1ccccc1C(=NC(=O)c1ccccc1)c1ccccc1, the “hERG current change (%, negative = inhibition) at 10uM” value was -9.42%. In the case of NC(=O)C1CCN(C(=O)CCc2ccsc2)CC1, the “hERG current change (%, negative = inhibition) at 10uM” value is reported as 11.9%. In the case of Nc1nc2ccc(Cl)cc2c2nc(-c3ccco3)nn12, the “hERG current change (%, negative = inhibition) at 10uM” value is reported as 6.59%. CCOc1ccc(-n2c(SCC(=O)NCc3ccco3)nc3c([nH]c4ccccc43)c2=O)cc1 was tested, and the “hERG current change (%, negative = inhibition) at 10uM” value was 0.926%. In the case of CCOC(=O)CCC(=O)Nc1ccccc1C(N)=O, the “hERG current change (%, negative = inhibition) at 10uM” value is reported as 7.17%. In the case of COc1ccc(CNC(=O)C/C(C)=N/NC(=O)Cc2ccc(OC)cc2)cc1, the “hERG current change (%, negative = inhibition) at 10uM” value is reported as 3.39%. With C=CCN=C(NC#N)SCCc1ccccc1 the “hERG current change (%, negative = inhibition) at 10uM” value was 1.24%. CCOc1ccc(S(=O)(=O)N2CCC(C(=O)NCCc3ccccc3)CC2)cc1 was tested, and the “hERG current change (%, negative = inhibition) at 10uM” value was 29.1%. O=C1CCCC(O)=C1N=Nc1c(Cl)cc(C(F)(F)F)cc1Cl was tested, and the “hERG current change (%, negative = inhibition) at 10uM” value was 15.4%. With COc1ccccc1N=Cc1c(O)c2ccccc2oc1=O the “hERG current change (%, negative = inhibition) at 10uM” value was -5.8%. With O=C(NC1CCC(O)CC1)C1CCN(S(=O)(=O)c2c(Cl)cccc2Cl)CC1 (centres unmarked) the “hERG current change (%, negative = inhibition) at 10uM” value was -2.42%. With COCCNC(=S)NNC(=O)c1cc(-c2cccnc2)nc2ccccc12 the “hERG current change (%, negative = inhibition) at 10uM” value was 17.7%. For Cc1cc(C)c(NC(=O)C2C3/C=C\CCCCC32)c(C)c1 (centres unmarked), the “hERG current change (%, negative = inhibition) at 10uM” value was 5.08%. In the case of C=CCOc1ccccc1CNCCCN1CCOCC1.Cl, the “hERG current change (%, negative = inhibition) at 10uM” value is reported as 28.6%. With Cc1cccc(C)c1NC(=O)CS(=O)CC(=O)NC1CCCc2ccccc21 (centres unmarked) the “hERG current change (%, negative = inhibition) at 10uM” value was 7.3%. For Cc1[nH]c2ccccc2c1C(=O)CSc1nnc(C2CC2)o1, the “hERG current change (%, negative = inhibition) at 10uM” value was 6.93%. CN(c1ccccc1)S(=O)(=O)c1cccc(NC(=O)COC(=O)C2CCCCC2)c1 was tested, and the “hERG current change (%, negative = inhibition) at 10uM” value was 13.7%. For COc1ccc(/C=N/NC(=O)CN(Cc2ccccc2)S(=O)(=O)c2ccc3c(c2)OCCO3)cc1, the “hERG current change (%, negative = inhibition) at 10uM” value was 0.168%. In the case of Cc1ccccc1/C=N\NC(=O)c1ccc(Cn2cccn2)o1, the “hERG current change (%, negative = inhibition) at 10uM” value is reported as 4.98%. In the case of CCC[N+](CC#Cc1ccccc1)(CCC)CC(=O)OCC, the “hERG current change (%, negative = inhibition) at 10uM” value is reported as -1.25%. In the case of CCn1ncc(CNC(=O)C2(C)CC2(Br)Br)c1C (centres unmarked), the “hERG current change (%, negative = inhibition) at 10uM” value is reported as 23.3%. CCOC1OC(=O)C(Cl)=C1Nc1ccccc1C (centres unmarked) was tested, and the “hERG current change (%, negative = inhibition) at 10uM” value was 7.7%. In the case of O=C(Nc1ccccc1)N1CCN(CCc2ccccc2)CC1, the “hERG current change (%, negative = inhibition) at 10uM” value is reported as -14.5%. In the case of Cc1ccc(OCCCCN2CCCCC2)cc1, the “hERG current change (%, negative = inhibition) at 10uM” value is reported as -12.1%. With COc1cc(C(=O)N(Cc2ccc(F)cc2)C2CCS(=O)(=O)C2)cc(OC)c1OC (centres unmarked) the “hERG current change (%, negative = inhibition) at 10uM” value was -9.26%. With COc1ccc(NC(=O)N[C@@H](CCSC)C(=O)O)cc1OC the “hERG current change (%, negative = inhibition) at 10uM” value was -0.994%. COc1ccc(OCCCn2cccc2/C=C2/C(=N)N3OC(C)=CC3=NC2=O)cc1 was tested, and the “hERG current change (%, negative = inhibition) at 10uM” value was -8.31%. CCOC(=O)c1ccc(N2C(=O)[C@@H](c3ccccc3)[C@H]2c2ccccc2)cc1 was tested, and the “hERG current change (%, negative = inhibition) at 10uM” value was 17.7%. With COc1ccc(CC(=O)Oc2cc(C)[nH]c(=O)c2[N+](=O)[O-])cc1 the “hERG current change (%, negative = inhibition) at 10uM” value was -0.383%. With COc1nc(C)cc(C)c1S(=O)(=O)c1ccccc1C the “hERG current change (%, negative = inhibition) at 10uM” value was 7.41%. For CCN1C(=O)C(CC(=O)Nc2ccc(F)cc2)N(CCCN2CCN(c3ccc(F)cc3)CC2)C1=S (centres unmarked), the “hERG current change (%, negative = inhibition) at 10uM” value was -62.2%. With COCCn1nnnc1C(c1ccccc1OC)N1CCc2ccccc2C1 (centres unmarked) the “hERG current change (%, negative = inhibition) at 10uM” value was -14.4%. Cc1c(NC(=S)NC(=O)c2ccc(Br)o2)c(=O)n(-c2ccccc2)n1C was tested, and the “hERG current change (%, negative = inhibition) at 10uM” value was 3.89%. With CC(C)(C)c1cc(CCC(=O)N2CCC2)cc(C(C)(C)C)c1O the “hERG current change (%, negative = inhibition) at 10uM” value was -6.37%. CCc1c(C)c(C#N)c2nc3ccccc3n2c1NCC1CCCO1 (centres unmarked) was tested, and the “hERG current change (%, negative = inhibition) at 10uM” value was -28.6%. With Cc1ccc(N2CCN(C(=O)c3ccccc3F)CC2)c(C)c1 the “hERG current change (%, negative = inhibition) at 10uM” value was -8.81%. In the case of COc1ccc(C2C(C(=O)c3cccs3)=C(O)C(=O)N2c2nnc(C)s2)cc1OC (centres unmarked), the “hERG current change (%, negative = inhibition) at 10uM” value is reported as 1.32%. For COc1ccccc1NC(=O)N1CCN(c2ncccn2)CC1, the “hERG current change (%, negative = inhibition) at 10uM” value was 6.96%. In the case of O=C(CSc1ncn[nH]1)Nc1nc(-c2ccccc2)ns1, the “hERG current change (%, negative = inhibition) at 10uM” value is reported as -7.44%. O=C(COC(=O)/C=C/c1ccc(C(F)(F)F)cc1)NCC1CCCCC1 was tested, and the “hERG current change (%, negative = inhibition) at 10uM” value was 0.926%. CCOc1cc(NC(=O)c2ccccn2)c(OCC)cc1NC(=O)c1ccccc1 was tested, and the “hERG current change (%, negative = inhibition) at 10uM” value was 24.9%. With CCOc1cccc(C2/C(=C(\O)c3ccc4c(c3)OCCO4)C(=O)C(=O)N2Cc2ccncc2)c1 (centres unmarked) the “hERG current change (%, negative = inhibition) at 10uM” value was 14.7%. For CCC(C(=O)NC(C)CCc1ccccc1)n1nc(C)n2c(cc3occc32)c1=O (centres unmarked), the “hERG current change (%, negative = inhibition) at 10uM” value was -27.7%. For NS(=O)(=O)c1ccc(CCN=C(NS(=O)(=O)c2cccs2)c2ccccc2)cc1, the “hERG current change (%, negative = inhibition) at 10uM” value was 11.8%. COC(CNC(=O)CCc1c(C)nc2c(-c3ccc(F)cc3)c(C)nn2c1C)OC was tested, and the “hERG current change (%, negative = inhibition) at 10uM” value was -21.8%. CC(OC(=O)CN(C)S(=O)(=O)c1ccc(Cl)cc1)C(=O)Nc1ncc(Cl)cc1Cl (centres unmarked) was tested, and the “hERG current change (%, negative = inhibition) at 10uM” value was -13.5%. CCC(Sc1nc2ccccc2c(=O)n1CC1CCCO1)C(=O)NCc1cccnc1 (centres unmarked) was tested, and the “hERG current change (%, negative = inhibition) at 10uM” value was -23.5%. For COCCNC(=S)N(CCc1c(C)[nH]c2ccc(F)cc12)Cc1ccco1, the “hERG current change (%, negative = inhibition) at 10uM” value was -7.74%. With Cc1cccc(N2CCN(C(=O)c3ccc(Cl)c(S(=O)(=O)NCc4ccco4)c3)CC2)c1C the “hERG current change (%, negative = inhibition) at 10uM” value was 4.75%. Cc1cc(C)c2c(N)c(C(=O)NN3CC(=O)N(c4ccccc4)CC3=O)sc2n1 was tested, and the “hERG current change (%, negative = inhibition) at 10uM” value was -0.929%. In the case of COc1ccc(C(=O)Nc2ccccc2NC(=O)c2ccc(OC)cc2)cc1, the “hERG current change (%, negative = inhibition) at 10uM” value is reported as -5.58%. In the case of C=C1SC(=Nc2ccccc2Cl)N(C(=O)c2sc3ccccc3c2Cl)C12CCCCC2, the “hERG current change (%, negative = inhibition) at 10uM” value is reported as 12.3%. In the case of Cc1c(C(=O)N2CCN(c3ccccn3)CC2)sc2ncnc(N3CCOCC3)c12, the “hERG current change (%, negative = inhibition) at 10uM” value is reported as -59%. For CSc1nsc(SCC(=O)Nc2ccc(F)cc2)n1, the “hERG current change (%, negative = inhibition) at 10uM” value was -3.68%.
